Drawing on US20230021840A1 (BEIJING SUNGEN BIOMEDICAL TECHNOLOGY, published 2023), this text covers Kd for one molecule.

In general, Kd refers to the free concentration of one partner at which half of the binding sites on the other are occupied at equilibrium, for simple one-to-one binding.

Experiment [1] addresses T1, recombinant human soluble GP73 (human, UniProt Q8NBJ4 56-401, limits assumed).
T1 construct: domain: soluble GP73; Expressed and purified from mammalian cells by the applicant; also called rhsGP73; sGP73
T1 sequence (looked up): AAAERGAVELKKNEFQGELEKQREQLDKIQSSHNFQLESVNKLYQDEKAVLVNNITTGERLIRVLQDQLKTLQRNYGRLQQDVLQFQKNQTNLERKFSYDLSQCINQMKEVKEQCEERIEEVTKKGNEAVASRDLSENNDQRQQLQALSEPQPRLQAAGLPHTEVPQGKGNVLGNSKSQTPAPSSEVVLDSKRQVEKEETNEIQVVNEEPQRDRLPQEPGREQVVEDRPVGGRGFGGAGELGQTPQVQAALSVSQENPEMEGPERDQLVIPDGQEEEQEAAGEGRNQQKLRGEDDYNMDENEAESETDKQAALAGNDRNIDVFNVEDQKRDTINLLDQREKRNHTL
As to the kind of experiment: SPR, Reichert 4SPR.

The target in experiment [2] is T1, recombinant human soluble GP73. As to the kind of experiment: OpenSPR, GP73 coupled to amine sensor chip, glucagon in mobile phase.
Experiment [3] has the same target. The experiment is described as follows: microscale thermophoresis (MST), His-tagged GP73 labelled with RED-tris-NTA, GCG titrated. On the technique in general: Microscale thermophoresis detects binding through changes in fluorescence in a small temperature gradient.

B1: glucagon (peptide)
peptide: not shown
notes: mature; The 29-residue glucagon peptide is only a part of that entry; also called GCG
In the case of B1, the Kd came to 2830 nM in experiment [1], 2800 nM in experiment [2] and 2450 nM in experiment [3].
